Test results as given in PubChem BioAssay (NCATS).
The other results are listed elsewhere or left out. These are further read-outs of the screen, such as a control signal, another cell line or another target. No call is given for them. The list favours compounds with an active or inconclusive main result. Potencies come from curve fits of mixed quality, noted in brackets.

Test: qHTS Assay for Lipid Storage Modulators (AID 1519)
Details: Drosophila S3 cells, BODIPY lipid droplet/cell ratio, laser cytometry, cells loaded with oleic acid
Summary of the method: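 Cells seeded at 5,000 per well were treated with compounds over a concentration series and loaded with oleic acid (400 uM, as added). Lipid droplet fluorescence (488 nm excitation, 500-530 nm channel) was read by laser-scanning cytometry and normalized to 20 uM Triacsin C.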

[1] = measured here: cell count channel max response
[2] = measured here: cell number channel AC50
[3] = measured here: lipid (BODIPY) channel AC50
[4] = measured here: lipid channel max response
Tags describe the fitted curve by direction and shape.

| SMILES | max response [1] | AC50 [2] | AC50 [3] | max response [4] |
| --- | --- | --- | --- | --- |
| COc1ccc(-n2c(=O)c(-c3ccccc3)nc3cnc(N4CCOCC4)nc32)cc1 | 24.7% | 5.01 µM [rising, full curve, poor fit] | 5.01 µM [rising, full curve, poor fit] | 31.2% |
| COc1ccc(Oc2ncc3nc(-c4cc(F)cc(F)c4)c(=O)n(C4CC4)c3n2)cc1 | -1.96% | 2 µM [rising, partial curve] | 2.51 µM [rising, partial curve] | -4.55% |
| COCCn1c(=O)c(-c2ccccc2)nc2cnc(OCc3ccccc3)nc21 | 13.3% | 0.0501 µM [rising, full curve] | 0.0398 µM [rising, full curve] | 2.9% |
| O=C(c1cnccn1)N1CCC2(CCCN(c3ccc(-c4ccccc4)cc3)C2)CC1 | 23.2% | 0.631 µM [rising, full curve, poor fit] | 0.112 µM [rising, full curve] | 38.5% |
| COc1ncc2ncc(=O)n(CCc3ccccc3)c2n1 | 15.4% | 3.55 µM [rising, partial curve, poor fit] | 2.51 µM [rising, partial curve, poor fit] | 23.1% |
| Cn1cc(-c2nc3cncnc3n(C3CC3)c2=O)c2ccccc21 | 30.4% | 0.631 µM [rising, full curve, poor fit] | 0.562 µM [rising, full curve, poor fit] | 35.3% |
| CCNc1ncc2nc(-c3cccs3)c(=O)n(Cc3cccs3)c2n1 | 43.5% | 5.01 µM [rising, partial curve] | 39.8 µM [falling, single point] | -30.9% |
| Cc1noc(C)c1-c1cncnc1-n1ccnc1 | 26.3% | 7.08 µM [rising, partial curve, poor fit] | 0.282 µM [rising, full curve, poor fit] | 33.1% |
| COc1ccc2[nH]cc(CCNc3cc(-c4ccccc4C)ncn3)c2c1 | 17.5% | 1.26 µM [rising, full curve, poor fit] | 1.41 µM [rising, full curve, poor fit] | 16.8% |
| CCC(C)(C)N=C(NC#N)Nc1cccnc1 | 39% | 11.2 µM [rising, partial curve, poor fit] | 14.1 µM [rising, partial curve, poor fit] | 55.1% |
| O=C(O)COc1cccc(-c2ocnc2-c2nc(-c3ccccc3)c(-c3ccccc3)o2)c1 | 97.6% | 15.8 µM [rising, partial curve] | 17.8 µM [rising, partial curve] | 125% |
| O=C(Cc1ccccc1)Nc1nc2ccc(Cl)cc2c2nc(-c3ccco3)nn12 | 70.3% | 0.708 µM [rising, full curve] | 0.794 µM [rising, full curve] | 87.9% |
| COc1cccc(Cn2c(=O)c(-c3cccc(C#N)c3)nc3cnc(Nc4ccccc4)nc32)c1 | 63.8% | 4.47 µM [rising, partial curve] | 0.158 µM [rising, full curve, poor fit] | 0.352% |
| COc1ccc2c(c1OC)C(Cc1ccccc1)N1CCc3cc4c(cc3C1=C2)OCO4 (configuration not stated) | 41.2% | 1.12 µM [rising, full curve, poor fit] | 0.794 µM [rising, full curve, poor fit] | -84.3% |
| Clc1ccccc1-c1nccc(NCc2ccccc2)n1 | 4.82% | 4.47 µM [rising, single point] | 3.98 µM [rising, partial curve] | 7.67% |
| c1csc(CNc2ncncc2-c2ccoc2)c1 | 36.8% | 3.98 µM [rising, full curve] | 2.82 µM [rising, full curve, poor fit] | 39.2% |
| COc1ccccc1CNc1cc(-c2ccoc2)ncn1 | 38.1% | 8.91 µM [rising, partial curve] | 7.94 µM [rising, partial curve, poor fit] | 44.8% |
| O=c1c(-c2cccs2)nc2cnc(Oc3cccc(Cl)c3)nc2n1C[C@H]1CCCO1 | 12.2% | 4.47 µM [rising, partial curve] | 22.4 µM [falling, single point] | -48.7% |
| CC(C(=O)O)c1ccc(N2Cc3ccccc3C2=O)cc1 (configuration not stated) | 38.9% | 39.8 µM [rising, single point] | 39.8 µM [rising, single point] | 64.7% |

| SMILES | max response [1] | AC50 [2] | AC50 [3] | max response [4] |
| --- | --- | --- | --- | --- |
| Cc1cnc(CNc2ncncc2-c2ccccc2Cl)cn1 | 31.9% | 8.91 µM [rising, partial curve, poor fit] | 5.62 µM [rising, partial curve] | 34.6% |
| CCOC(=O)C1=C(C)NC(C)=C(C(=O)OC)[C@H]1c1cccc([N+](=O)[O-])c1 | 86.4% | 2.82 µM [rising, full curve] | 3.16 µM [rising, full curve] | 119% |
| Cc1csc(-c2nc3ccccc3n2C)n1 | 93.5% | 2.51 µM [rising, full curve] | 2.51 µM [rising, full curve] | 148% |
| COc1ccc(-c2coc3ccc(OC4OC(COC(C)=O)C(OC(C)=O)C(OC(C)=O)C4OC(C)=O)cc3c2=O)cc1 (configuration not stated) | 35.5% | 0.355 µM [rising, full curve, poor fit] | 0.0708 µM [rising, full curve, poor fit] | 33.2% |
| COc1ccc2[nH]cc(CCNc3cc(-c4ccc5c(c4)OCO5)ncn3)c2c1 | 4.58% | 0.0126 µM [rising, full curve, poor fit] | 0.0158 µM [rising, full curve, poor fit] | 7.75% |
| COCCn1c(=O)c(-c2ccc(Cl)cc2)nc2cnc(N(C)C)nc21 | 45.2% | 2.51 µM [rising, full curve] | 2.24 µM [rising, full curve] | 48.7% |
| CS(=O)(=O)Nc1cccc(-c2nc(-n3ccnc3)c3ccccc3n2)c1 | 30.5% | 0.794 µM [rising, full curve, poor fit] | 2.24 µM [rising, full curve, poor fit] | 36.5% |
| Cc1ccc(S(=O)(=O)NCc2ccccc2)cc1 | 84.1% | 14.1 µM [rising, partial curve] | 15.8 µM [rising, partial curve] | 114% |
| COCCn1c(=O)c(-c2cc(F)cc(F)c2)nc2cnc(OCc3ccccc3)nc21 | 19.4% | 7.08 µM [rising, partial curve] | 3.98 µM [rising, partial curve] | 6.13% |
| Cc1noc(C)c1C(=O)N1CCC2(CCCN(C(c3ccccc3)c3ccccc3)C2)CC1 | 12.3% | 0.0158 µM [rising, full curve, poor fit] | 0.02 µM [rising, full curve, poor fit] | 12.2% |
| Cc1ccc2c(c1)C(=O)[C@@]1(O)CCN(c3ccccc3)C1=N2 | 79.5% | 14.1 µM [rising, partial curve, poor fit] | 12.6 µM [rising, partial curve, poor fit] | 78% |
| COc1ccc(-c2nc3cnc(N(C)C)nc3n(CCC#N)c2=O)cc1 | 35.3% | 4.47 µM [rising, partial curve, poor fit] | 3.98 µM [rising, partial curve] | 44.5% |
| C[C@H](C(=O)O)c1cccc(C(=O)c2ccccc2)c1 | 34.9% | 39.8 µM [rising, single point] | 39.8 µM [rising, partial curve, poor fit] | 55.7% |
| OC[C@H]1O[C@H](n2cnc3c(NC4CCCC4)nc(Cl)nc32)[C@@H](O)[C@@H]1O | 33.2% | 17.8 µM [rising, partial curve, poor fit] | 15.8 µM [rising, partial curve, poor fit] | 45.7% |
| O=c1c(-c2ccc(Cl)cc2)nc2cncnc2n1Cc1ccc(F)cc1 | 17% | 1.41 µM [rising, full curve, poor fit] | 1.12 µM [rising, full curve, poor fit] | 22.4% |
| CN(Cc1ccco1)c1cc(-c2ccc3c(c2)OCO3)ncn1 | 17.4% | 3.55 µM [rising, partial curve, poor fit] | 3.16 µM [rising, partial curve, poor fit] | 24% |
| COc1cc([C@@H]2Oc3cc([C@H]4Oc5cc(O)cc(O)c5C(=O)[C@H]4O)ccc3O[C@H]2CO)ccc1O | 65.6% | 14.1 µM [rising, partial curve, poor fit] | 14.1 µM [rising, partial curve, poor fit] | 97.1% |
| COc1cccc(-c2cncnc2NCCN2CCOCC2)c1 | 35.7% | 2.51 µM [rising, full curve] | 2.51 µM [rising, full curve] | 42.5% |
| COc1cccc(Cn2c(=O)cnc3cnc(OC)nc32)c1 | 39.8% | 31.6 µM [rising, single point] | 17.8 µM [rising, single point] | 38.3% |
